Article PMC4336329 (PLoS ONE, 2015)
Among all 310,000 compounds or so, about 14,000 (4.5%) showed an effect of 50% or more. The effect is printed as a negative number. The list shows a part of the results.

Biological target: human ether-à-go-go-related gene (hERG) potassium channel (human, UniProt Q12809)
Assay: primary screen, population patch clamp on CHO cells stably expressing hERG
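Further: peak tail current of the secondary pulse compared with the same well before compound.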

human ether-à-go-go-related gene (hERG) potassium channel, sequence (Q12809 whole entry, looked up): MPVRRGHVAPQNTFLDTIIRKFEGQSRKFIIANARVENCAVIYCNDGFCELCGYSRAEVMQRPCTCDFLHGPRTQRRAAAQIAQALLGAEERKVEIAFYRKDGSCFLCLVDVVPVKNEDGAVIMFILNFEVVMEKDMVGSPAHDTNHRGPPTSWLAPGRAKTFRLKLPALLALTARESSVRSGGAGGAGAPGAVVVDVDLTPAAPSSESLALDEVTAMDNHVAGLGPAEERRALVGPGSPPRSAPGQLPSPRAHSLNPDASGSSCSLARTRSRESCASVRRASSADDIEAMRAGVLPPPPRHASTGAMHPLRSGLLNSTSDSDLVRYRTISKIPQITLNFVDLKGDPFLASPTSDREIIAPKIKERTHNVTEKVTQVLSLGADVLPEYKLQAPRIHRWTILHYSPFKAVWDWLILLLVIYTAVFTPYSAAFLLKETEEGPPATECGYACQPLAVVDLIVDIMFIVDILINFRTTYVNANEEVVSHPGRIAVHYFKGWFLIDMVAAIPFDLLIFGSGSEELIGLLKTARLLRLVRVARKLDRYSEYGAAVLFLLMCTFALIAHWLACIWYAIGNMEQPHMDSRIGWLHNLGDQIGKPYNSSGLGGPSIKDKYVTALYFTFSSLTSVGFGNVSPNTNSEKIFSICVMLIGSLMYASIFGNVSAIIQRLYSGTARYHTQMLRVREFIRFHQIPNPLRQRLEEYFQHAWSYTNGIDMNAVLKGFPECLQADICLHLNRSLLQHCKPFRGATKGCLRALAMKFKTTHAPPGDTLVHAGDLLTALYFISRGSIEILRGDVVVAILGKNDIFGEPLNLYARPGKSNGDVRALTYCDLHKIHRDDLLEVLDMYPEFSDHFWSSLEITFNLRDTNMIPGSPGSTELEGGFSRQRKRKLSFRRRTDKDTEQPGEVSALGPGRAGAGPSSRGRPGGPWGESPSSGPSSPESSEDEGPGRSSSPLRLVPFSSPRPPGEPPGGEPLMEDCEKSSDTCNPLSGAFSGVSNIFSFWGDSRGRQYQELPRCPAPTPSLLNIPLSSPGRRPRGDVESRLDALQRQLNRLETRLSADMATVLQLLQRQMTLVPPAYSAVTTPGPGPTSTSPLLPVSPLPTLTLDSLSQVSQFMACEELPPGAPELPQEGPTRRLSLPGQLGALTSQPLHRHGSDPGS

Structure (SMILES)	hERG current change (%, negative = inhibition) at 10uM
Cc1ccc(C)c(Nc2c([N+](=O)[O-])ccc3nonc23)c1	20.6%
Clc1ccccc1-c1nn2c(-c3ccncc3)nnc2s1	-7.89%
CCOCCCN(C(=O)Cn1nnc(-c2ccc(OC)c(OC)c2)n1)C(C(=O)NCC1CCCO1)c1ccc(F)cc1 (stereo not drawn)	-12.8%
Cc1nnsc1-c1nc2ccccc2[nH]1	2.78%
COc1ccc2oc(=O)c(/C(C)=N/Nc3ccccc3)cc2c1	-2.36%
COC(=O)Cc1c(C)c2ccc(OCC(=O)N3CCOCC3)cc2oc1=O	4.17%
CCOc1ccc(NC(=O)CCC(=O)NNC(=O)c2ccco2)cc1	12.1%
Cc1nc2c(-c3ccc(F)cc3)c(C)nn2c(C)c1CCC(=O)NCc1ccco1	-19.9%
CCN(CC)C(=O)CSc1nc(COc2ccccc2)nc2ccccc12	-5.2%
CCc1ccccc1N(CC(=O)NC(C)C)C(=O)CCC(=O)Nc1nccs1	-2.53%
N#Cc1ccsc1NC(=O)CN1CCN(c2ccccc2O)CC1	-4.95%
COCCN(C(=O)CCl)C(C(=O)NC1CCCCC1)c1ccccc1C (stereo not drawn)	3%
Cn1nnc(NC(=O)c2ccccc2F)n1	-6.49%
O=C(NCCCN1CCOCC1)C(=O)NCC1OCCCN1S(=O)(=O)c1cc(F)ccc1F (stereo not drawn)	13.2%
COc1ccc(COC(=O)NC2CCN(S(=O)(=O)c3ccc(OC)cc3)CC2)cc1	-2.98%
CCOC(=O)c1c(C)[nH]c(C(=O)COC(=O)CNC(=O)C2CCCCC2)c1C	-0.682%
Cc1cc(C)c(C)c(S(=O)(=O)N2CCN(C(=O)C3CCC3)CC2)c1C	-21%
O=C(CNC(=O)c1ccc(Cl)cc1Cl)OCC(=O)N1CCCC1=O	-5.3%
O=C(Nc1cccc2ncccc12)c1ccccc1[N+](=O)[O-]	11.2%
COc1ccc(-n2nc3c(c2NC(=O)c2cc(Br)ccc2Cl)CS(=O)C3)cc1 (stereo not drawn)	-43.4%
O=C(CCC(=O)c1ccccc1)NCCOc1ccccc1	8.68%
O=C(Nc1ccccc1Cl)c1ccc2c(=O)n3c(nc2c1)CCC3	-6.14%

Structure (SMILES)	hERG current change (%, negative = inhibition) at 10uM
Cc1cccc(N2CCN(CC3CCCCC3)CC2)c1C	26.9%
C=CCNCC(=O)Nc1ccccc1SCC(=O)Nc1ccsc1C(=O)OC	-30.7%
O=C(NCc1ccc2c(c1)OCO2)c1cnc2n(c1=O)CCS2	0.134%
COc1ccc(C)cc1NC(=O)c1cccc(C(=O)Nc2cc(C)ccc2OC)c1	-13.3%
COCCN1C(=O)C(=O)/C(=C(/O)c2cccc(OC)c2)C1c1ccco1 (stereo not drawn)	24.8%
Cc1nc2ccc(C(=O)N3c4ccccc4CC3C)cc2s1 (stereo not drawn)	-14%
NNC(=O)c1ccc(Cl)cc1Cl	24.1%
Cc1cc(OCC(=O)Nc2ccc(N3CCCC3)cc2)cc(C)c1Cl	0.549%
COCc1cc(C)nc2sc(C(=O)Nc3ccccc3F)c(N)c12	10.2%
CC(C)(C)N(Cc1ccccc1)C(=O)c1ccc2c(c1)OCCO2	-9.12%
N=C(N)c1c(O)n(C2CCCCC2)c(=O)n(C2CCCCC2)c1=O	18.5%
COc1ccc(NC(=O)Nc2nnc(N3CCCCC3C)s2)cc1OC (stereo not drawn)	7.76%
C=C(C)C1CC=C(C)/C(=N/NC(=O)C2CC2c2ccccc2)C1 (stereo not drawn)	25.4%
Cc1ccc(NS(=O)(=O)c2cc(NC(=O)C(C)Oc3ccccc3)ccc2C)c(C)c1 (stereo not drawn)	-1.24%
CN1C(=O)C(C)(C)c2cc(S(=O)(=O)N3CCCC(C(=O)Nc4ccc(Cl)cc4)C3)ccc21 (stereo not drawn)	-9.27%
O=C(O)C1=C(C(=O)Nc2ccc(F)c(Cl)c2)CCCC1	17.7%
c1cnc(N2CCN(c3ccc4ccccc4n3)CC2)nc1	12.5%
COc1ccc(CCN(C(=O)Cn2nnc3ccccc32)C(C(=O)NCC2CCCO2)c2ccncc2)cc1OC (stereo not drawn)	48.5%
COc1ccccc1N(CC(=O)NCc1ccccc1)C(=O)CCC(=O)Nc1ccccn1	-9.48%
CC(=O)CN1C(=O)NC2(CCCc3ccccc32)C1=O (stereo not drawn)	26.1%
CC(C)(C(N)=O)N1CCN(c2ncc(C(F)(F)F)cc2Cl)CC1	-42.4%
CC1CCN(C(=O)C(Cc2ccccc2)n2cccc2)CC1 (stereo not drawn)	0.382%

Structure (SMILES)	hERG current change (%, negative = inhibition) at 10uM
Cc1ccc(S(=O)(=O)N2CCOCC2)cc1C(=O)OCC(=O)NC1CC1	-3.74%
CCOc1ccc(C(C(=O)NC2CCCCC2)N(CCOC)C(=O)c2snc(C(N)=O)c2N)cc1 (stereo not drawn)	-47.5%
CCOC(=O)C(=NC(C)CC)NNc1cccc(C(F)(F)F)c1 (stereo not drawn)	-1.86%
CC(C)(C)NC(=O)C(c1cccs1)N(C(=O)c1csnn1)c1ccccc1F (stereo not drawn)	5.99%
O=C(NNC(=O)C1[C@H]2CCCC[C@@H]12)Nc1cccc2ccccc12 (stereo partly drawn)	-6.11%
O=C(N/N=C/C(Cl)=C/c1ccc([N+](=O)[O-])cc1)C(=O)Nc1ccccc1C(=O)O	3.88%
COc1cc(SC)ccc1C(=O)OCC(=O)NCCNC(=O)COC(=O)c1ccc(SC)cc1OC	3.14%
O=C1c2cccc3c(N4CCCCC4)ccc(c23)C(=O)N1c1cccc(O)c1	32.6%
Cc1cc(C(F)F)n2nc(C(=O)Nc3sc4c(c3C#N)CCC4)nc2n1	18.3%
O=C(Nc1nc(-c2ccncc2)cs1)C1c2ccccc2Oc2ccccc21	8.83%
Cc1nn(C(C)C(=O)N2CCCC2)c(=O)c2nn(-c3ccccc3)c(C)c12 (stereo not drawn)	-0.856%
CCN1CCN(CCNC(=O)c2ccc(/C=C3/Sc4ccccc4N(Cc4cccc(C)c4)C3=O)cc2)CC1	-22%
O=C1CN=C(c2ccccc2)c2cc(Br)ccc2N1	-25.9%
COc1cc(C)ccc1OCc1cc(C(=O)NC(C)Cn2cncn2)no1 (stereo not drawn)	13.8%
Cc1cccc(-n2c(C)nc3ccc(Cl)cc3c2=O)c1	-9.64%
CCOC(=O)C(NC(=O)c1cccc(Cl)c1)(OCc1ccccc1)C(F)(F)F (stereo not drawn)	-5.11%
COc1ccc(CNC(=O)CN2C(=O)CC(c3ccccc3)=Nc3ccccc32)cc1	-8.66%
Nc1nonc1-c1nc2ccccc2[nH]1	-4.81%
Cc1cc(C)c(-c2cc(C(=O)Nc3c(C)n(C)n(-c4ccccc4)c3=O)[nH]n2)c(O)c1	-17.3%
COc1cccc(-c2nc(CS(=O)(=O)CC(=O)Nc3cc(OC)ccc3OC)c(C)o2)c1	15.4%
CCN(CC(=O)Nc1c(F)cccc1F)C(=O)CN1c2cccc3cccc(c23)S1(=O)=O	-0.876%
O=S(=O)(c1ccc(SCCO)nc1)N1CCOCC1	-2%

Structure (SMILES)	hERG current change (%, negative = inhibition) at 10uM
CCOc1ccc(CCNC(=O)CSc2cc(=O)n(C)c3ccccc23)cc1OCC	0.88%
C[C@@H]1C=C[C@](Cc2ccccc2)(C(=O)O)N1C(=O)c1ccccc1	14.8%
Cc1nccn1CCOc1ccc(Cl)cc1.O=C(O)C(=O)O	-38.4%
COc1ccc(NC(=O)c2ccc(-c3csc(C)n3)cc2)cc1	18.5%
CC1CC(C)CN(C(=O)C2CCN(S(=O)(=O)c3cccs3)CC2)C1 (stereo not drawn)	-6.27%
CCCCCc1ccc(-c2cn(Cc3ccc(C)cc3)nn2)cc1	31.8%
COc1ccc(-c2ccc3c(c2)S(=O)(=O)c2cccc(C(=O)NC[C@@H]4CCCO4)c2C3=O)cc1OC	5.87%
CCCCOc1ccc(C2NC(=O)NC(C)=C2C(C)=O)cc1OCC (stereo not drawn)	5.32%
CN1CCN(C(=O)c2cc3c(s2)-c2ccccc2S(=O)(=O)C3)CC1	4.14%
CCCn1c(CNC(=O)Cc2ccccc2)nc2ccccc21	-21.3%
CCC(NC(=O)c1cc(COc2cncc(Cl)c2)on1)c1ccc(C)cc1 (stereo not drawn)	-24.3%
CN(C)C(=O)C12CCC(C)(C(=O)C1Br)C2(C)C (stereo not drawn)	16.4%
c1ccc(CCCCN2C(Nc3ccccc3)=NC[C@@H]2Cc2ccccc2)cc1	-71.5%
COc1ccc(OC)c(C2=NS(=O)(=O)N(C)C(C(=O)NCc3cccs3)=C2)c1	-28%
CC(C)Cc1cc(C(=O)N2CCCC(C(=O)c3cc(F)ccc3F)C2)no1 (stereo not drawn)	-26.2%
Cc1nc(NN)nc(NCc2ccccc2)n1	1.47%
CN1CCC(CNC(=O)Nc2csc3ccccc23)CC1	-8.26%
CC(C)c1ccc(Nc2nnns2)cc1	11.7%
Fc1ccc(-n2cc(-c3ccccc3)c3c(=S)nc[nH]c32)cc1	-3.14%
CCN(CC)C(=O)c1[nH]cnc1C(=O)N[C@@H](Cc1ccccc1)C(=O)OCc1ccccc1	9.64%
Cc1nc2cc(NC(=O)CS(=O)(=O)c3ccccc3)ccc2s1	-23.8%
